This note sets out measurements from PubChem BioAssay AID1645882 (National Center for Advancing Translational Sciences (NCATS), 2021).

In all, about 16,000 compounds went through this assay and about 120 (0.75%) were called active. About 4% were inconclusive and are not listed. Calls come from the whole dose curve; as a rule, active = well fitted inhibition curve with a large enough effect; inconclusive = small, poorly fitted or top-dose-only effect; inactive = no such curve, though single readings can be large or run the other way. Some of the results follow.

UniProt O95398, sequence (O95398 whole entry, looked up): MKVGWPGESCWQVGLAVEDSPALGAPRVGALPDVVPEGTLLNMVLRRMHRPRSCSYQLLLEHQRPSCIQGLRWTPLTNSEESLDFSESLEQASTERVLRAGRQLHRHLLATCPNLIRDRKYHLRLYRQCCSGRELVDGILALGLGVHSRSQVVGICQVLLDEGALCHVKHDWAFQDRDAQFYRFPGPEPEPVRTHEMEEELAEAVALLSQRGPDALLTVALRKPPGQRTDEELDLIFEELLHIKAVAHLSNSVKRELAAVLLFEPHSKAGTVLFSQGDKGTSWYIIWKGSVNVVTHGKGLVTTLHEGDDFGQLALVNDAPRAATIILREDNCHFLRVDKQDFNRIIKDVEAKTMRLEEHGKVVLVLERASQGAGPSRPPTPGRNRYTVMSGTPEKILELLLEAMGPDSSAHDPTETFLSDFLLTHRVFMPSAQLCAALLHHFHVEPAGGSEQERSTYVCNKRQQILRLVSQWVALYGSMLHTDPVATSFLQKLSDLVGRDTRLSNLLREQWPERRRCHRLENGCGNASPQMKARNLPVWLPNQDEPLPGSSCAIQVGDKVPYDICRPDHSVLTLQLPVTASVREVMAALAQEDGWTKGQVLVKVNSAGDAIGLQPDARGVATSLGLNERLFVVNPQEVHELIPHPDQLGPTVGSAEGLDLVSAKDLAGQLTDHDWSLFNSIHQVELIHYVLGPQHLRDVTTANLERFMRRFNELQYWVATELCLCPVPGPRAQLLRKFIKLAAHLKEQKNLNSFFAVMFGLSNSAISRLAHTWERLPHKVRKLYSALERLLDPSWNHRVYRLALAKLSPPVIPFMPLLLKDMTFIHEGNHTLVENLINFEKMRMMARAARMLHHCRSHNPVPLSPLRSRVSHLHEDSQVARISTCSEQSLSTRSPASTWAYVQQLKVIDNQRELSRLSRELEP

The target of the assay is Rap guanine nucleotide exchange factor 3 (Homo sapiens) (UniProt O95398). Nature of the assay: Validation qHTS for antagonist of cAMP-regulated guanine nucleotide exchange factor 3 (EPAC1).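 Note: plate controls were DMSO for no effect and ATA control for full effect; nearly all actives have a fitted effect of over 75% in size.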 The conditions noted are these: EPAC1 Rap1B-BODIPY-GDP exchange, fluorescence; series mostly up to 150 µM; activity change, negative = inhibition: at the top concentration. An outline of the steps:
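Nucleotide exchange followed as fluorescence loss when BODIPY-GDP leaves Rap1B (480 nm excitation, 540 nm emission), read at 5 min intervals over 30 min. Reaction: 100 nM EPAC1, 250 nM RAP1B-BODIPY-GDP, 50 uM GDP; ATA and DMSO define normalization.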
A general note: Quantitative high-throughput screening tests each substance at several concentrations.
As for `Cc1cnc(-n2ncc(C(=O)NCCc3ccccn3)c2C)nc1-c1ccc(F)cc1`, the “activity change, negative = inhibition” value is inactive: 13.9%.

`CC(C)c1nc(CN(C)C(=O)N[C@H](C(=O)N[C@@H](Cc2ccccc2)C[C@H](O)[C@H](Cc2ccccc2)NC(=O)OCc2cncs2)C(C)C)cs1`: the “activity change, negative = inhibition” value was inactive: 0.389%.

As for `CCCOC(=O)c1c(-c2ccccc2)nc(CC)c(C(=O)SCC)c1CCC`, the “activity change, negative = inhibition” value is inactive: -3.56% [at 75.8 µM].

On to `COc1ccccc1OCCNCC(O)COc1cccc2[nH]c3ccccc3c12` (centres undefined), for which the activity change, negative = inhibition result is “inactive”.

As for `COc1ccccc1CNc1ncnc2ccc(-c3ccc4c(c3)OCO4)cc12`, the “activity change, negative = inhibition” value is inactive: 1.51%.

Consider `Cc1cnc(SCc2ccccn2)nc1C1CCCN(C(=O)c2ccc(-c3ccccc3F)cc2)C1` (centres undefined), for which the “activity change, negative = inhibition” value was inactive: 1.45%.

Take `COc1cc(-c2coc3cc(OCc4ccccc4)c(OC)c(O)c3c2=O)cc(O)c1OC`: the “activity change, negative = inhibition” value is inactive: -22.3%.

Regarding `CCn1c(-c2ccccc2F)nc2cc(NC(C)=O)cc(C(=O)NCC3CCOCC3)c21`, the “activity change, negative = inhibition” value was inactive: 8.87%.

`COC(=O)N1CCC2(CCCN(c3ccccn3)C2)CC1`: the “activity change, negative = inhibition” value was inactive: 34%.

Turning to `CC1OC1P(=O)(O)O` (centres undefined), the “activity change, negative = inhibition” value is inactive: -1.48% [at 75.8 µM].

Regarding `COC(=O)/C(=C1/OC(=O)C(c2ccccc2)=C1O)c1ccccc1`, the “activity change, negative = inhibition” value is inactive: 6.34%.

`Cc1cnc(-n2ncc(C(=O)NCCN3CCOCC3)c2C(C)C)nc1-c1ccc(F)cc1`: the “activity change, negative = inhibition” value was inactive: -1.73%.

Regarding `CC(=O)Oc1cccc(C(=O)O)c1OC(C)=O`, the “activity change, negative = inhibition” value is inactive: 9.07%.

Consider `CCN(CC)C(=O)c1cc(S(=O)(=O)Cc2ccccc2)c(N2CCC(c3ccccc3)CC2)cc1N(CC)CCN(C)C`, for which the “activity change, negative = inhibition” value is inactive: -9.9%.

Take `COc1c(O)cc2c(c1O)[C@@H]1O[C@H](CO)[C@@H](O)[C@H](O)[C@H]1OC2=O`: the “activity change, negative = inhibition” value is inactive: 2.48% [at 75.8 µM].

Turning to `CCC1OC(=O)C(C)[C@@H](O[C@H]2C[C@@](C)(OC)C(O)C(C)O2)C(C)[C@@H](O[C@@H]2OC(C)CC(N(C)C)C2O)[C@@](C)(O)CC(C)CN(C)C(C)C(O)[C@]1(C)O` (some centres undefined), the “activity change, negative = inhibition” value was inactive: 8.51%.

Take `CCCCC(F)(F)[C@@]1(O)CC[C@H]2[C@H](CC(=O)[C@@H]2CCCCCCC(=O)O)O1`: the “activity change, negative = inhibition” value was inactive: 29.9%.

Turning to `COc1ccc(CCCOC(Cn2ccnc2)c2ccc(OC)cc2)cc1` (centres undefined), the activity change, negative = inhibition entry was “inactive”.

Turning to `C=CCN(C(=O)OC(C)(C)C)S(=O)(=O)NCc1ccccc1`, the “activity change, negative = inhibition” value was inactive: 6.4%.

As for `C[N+]1(CC(=O)c2ccc(-c3ccccc3)cc2)CCOCC1`, the “activity change, negative = inhibition” value was inactive: 21.9%.

Regarding `COc1ccc(C(C)=O)c(O)c1`, the “activity change, negative = inhibition” value is inactive: -1.33%.

In the case of `Cc1cccc(CNCCn2cc(C(=O)Nc3ccccc3)nn2)c1`, the “activity change, negative = inhibition” value was inactive: -6.58%.

For the compound `CCc1ccc(C(=O)C[N+]2(C)CCOCC2)cc1`, the “activity change, negative = inhibition” value was inactive: 7.1%.

For `Cc1cccc(Nc2ncccc2C(=O)O)c1C`, the “activity change, negative = inhibition” value was inactive: 14.4%.

Take `O=C1CCN(CCc2ccccc2)CCN1[C@H](CO)c1ccccc1`: the “activity change, negative = inhibition” value was inactive: -13%.

For the compound `Oc1ccc(C(O)CNCCCCCCNCC(O)c2ccc(O)c(O)c2)cc1O` (centres undefined), the “activity change, negative = inhibition” value was inactive: 3.21%.

Take `CCc1c(C(=O)NCCc2ccc(N3CCCCC3)cc2)[nH]c2ccc(Cl)cc12`: the “activity change, negative = inhibition” value was inactive: -8.84% [at 75.8 µM].

Consider `Cc1cc(C(=O)Nc2ccccc2-c2nc(CNC(=O)c3ccccc3Cl)c(C)o2)c(C)o1`, for which the “activity change, negative = inhibition” value is inactive: 11.4%.

Regarding `CCCCN(CCCC)C(=S)[S-].CCCCN(CCCC)C(=S)[S-].[Zn+2]`, the “activity change, negative = inhibition” value was inactive: -4.97%.

Consider `CCN(Cc1ccncc1)Cc1ccc2c(c1)CN(C(=O)c1ccccc1)CCO2`, for which the “activity change, negative = inhibition” value was inactive: 9.54%.

For `Cc1cccc(CNC(=O)c2cnn(-c3nccc(-c4cccs4)n3)c2C(C)C)n1`, the “activity change, negative = inhibition” value was inactive: 19.1%.

Regarding `C#CCOc1ccc2c(C)cc(=O)oc2c1`, the “activity change, negative = inhibition” value is inactive: 22.1%.

Take `CN(C)c1ncc2nc(-c3cccs3)c(=O)n(C3CC3)c2n1`: the “activity change, negative = inhibition” value is inactive: 52.3%.

With `COc1ccc2[nH]c(S(=O)Cc3ncc(C)c(OC)c3C)nc2n1` (centres undefined), the “activity change, negative = inhibition” value was inactive: 8.43%.

Turning to `CS(=O)(=O)Nc1cccc(-c2cncnc2NCc2ccccc2)c1`, the “activity change, negative = inhibition” value was inactive: 5.93%.

Take `CCC1=C[C@@H]2CN(C1)Cc1c([nH]c3ccccc13)[C@@](C(=O)OC)(c1cc3c(cc1OC)N(C)[C@@H]1[C@@](O)(C(=O)OC)[C@H](OC(C)=O)[C@]4(CC)C=CCN5CC[C@]31[C@@H]54)C2`: the “activity change, negative = inhibition” value is inactive: 4.66%.

With `Cc1cc(O)cc(=O)o1`, the “activity change, negative = inhibition” value is inactive: -3.13%.

For the compound `Cn1c(=O)c(CCc2ccccc2)nc2cnc(Oc3ccccc3)nc21`, the “activity change, negative = inhibition” value is inactive: -6.5%.

With `NC(N)=NCCN1CCCCCCC1`, the activity change, negative = inhibition entry was “inactive”.

Consider `COCC(=O)N1CCC[C@@]2(CCN(Cc3nccs3)C2)C1`, for which the “activity change, negative = inhibition” value is inactive: 9.13%.

For `Cc1cnc(-n2ncc(C(=O)N(C)C3CCOC3)c2-c2cccs2)nc1-c1ccc(F)cc1` (centres undefined), the “activity change, negative = inhibition” value was inactive: 7.41%.

Regarding `O=c1c(-c2ccc(Cl)cc2)nc2cnc(N3CCOCC3)nc2n1Cc1ccc(F)cc1`, the “activity change, negative = inhibition” value was inactive: 19.1%.

In the case of `CCN1CCCC1CNC(=O)c1cc(S(=O)(=O)CC)c(N)cc1OC` (centres undefined), the activity change, negative = inhibition entry is “inactive”.

Turning to `Nc1nc(N)nc(-c2cc(Cl)ccc2Cl)n1`, the “activity change, negative = inhibition” value was inactive: 16.1%.

Take `CCOC(=O)[C@H](CCc1ccccc1)N[C@@H](C)C(=O)N1CC2(C[C@H]1C(=O)O)SCCS2`: the “activity change, negative = inhibition” value is inactive: 13.8%.

In the case of `S=P(N1CC1)(N1CC1)N1CC1`, the activity change, negative = inhibition result was “inactive”.

`COC(=O)C1CCN(Cc2ccc3c(c2)CN(C(=O)c2ccc4nc(C)c(C)nc4c2)CCO3)CC1`: the “activity change, negative = inhibition” value was inactive: 7.92%.

As to `COCCN(C)C(=O)c1cnn(-c2nccc(-c3cc(C)sc3C)n2)c1C`, the “activity change, negative = inhibition” value was inactive: 6.02%.

On to `O=c1c(-c2cccc(F)c2)nc2cncnc2n1Cc1ccccc1`, for which the “activity change, negative = inhibition” value is inactive: -2.44%.

For the compound `COc1cc(N)c(Cl)cc1C(=O)NC1CCN(Cc2ccccc2)CC1`, the activity change, negative = inhibition result was “inactive”.

On to `COc1ccc(SC[C@H](Cc2ccccc2)N2CC[C@@H](O)CCC2=O)cc1`, for which the “activity change, negative = inhibition” value was inactive: 1.24%.

With `COC(=O)N1CCC2(CCCN(C(=O)Nc3ccc(OC)cc3)C2)CC1`, the “activity change, negative = inhibition” value was inactive: 21.6%.

Turning to `COc1cccc(CNC(=O)c2c(OC)cc(=O)n3c2CCN(C(=O)C2=C(C)OCCO2)CC3)c1`, the “activity change, negative = inhibition” value was inactive: 12.6%.

For the compound `Cc1ccc(F)cc1CNC(=O)c1sc2ncnc(NCC3CCCO3)c2c1C` (centres undefined), the “activity change, negative = inhibition” value is inactive: 8.5%.

On to `COc1ccc(Oc2ncc3nc(-c4ccc(F)cc4)c(=O)n(CCC#N)c3n2)cc1`, for which the “activity change, negative = inhibition” value was inactive: -0.261%.

On to `C=CCSCC(N)C(=O)O` (centres undefined), for which the “activity change, negative = inhibition” value is inactive: 20.8%.

`COc1cc(NCCCC(C)N)c2ncccc2c1` (centres undefined): the “activity change, negative = inhibition” value was inactive: 7.2%.

`C[C@@H]1c2ccccc2CN1CC1=NCCN1`: the “activity change, negative = inhibition” value was inactive: 7.18%.

With `Cc1ccccc1N=C1Nc2ccc(Cl)cc2N[C@]12C[C@H]1CCCC(=O)N3CC[C@@H](C2)[C@@H]13`, the “activity change, negative = inhibition” value was inactive: 10.6%.

For the compound `COc1cc(C)c(CC/C(C)=C/C=C/C(C)=O)c(C)c1C`, the “activity change, negative = inhibition” value was inactive: -8.02%.

On to `COc1ccc(CNC(=O)c2cnn(-c3ncc4c(n3)-c3ccccc3CC4)c2C)cc1OC`, for which the “activity change, negative = inhibition” value was inactive: 6.94%.

As for `O=C(c1ccc(Cl)cc1)N1CCN(c2ccc([N+](=O)[O-])c3ncccc23)CC1`, the “activity change, negative = inhibition” value is inactive: -7.07% [at 75.8 µM].

Regarding `COC(=O)[C@@H]1N2C(=O)[C@@H](NC(=O)C(C)Oc3ccccc3)[C@H]2SC1(C)C` (some centres undefined), the “activity change, negative = inhibition” value is inactive: 7.24%.

For the compound `COCC1CCCN(Cc2ccc3c(c2)CN(C(=O)c2cccnc2OC)CCO3)C1` (centres undefined), the “activity change, negative = inhibition” value was inactive: 9.6%.
